Experimental data published in PubChem BioAssay AID588855 (National Center for Advancing Translational Sciences (NCATS), 2011).
Screen size: about 410,000 compounds; about 5,000 (1.2%) were called active. This list was built around the results that the source calls inconclusive (neither active nor inactive); the mix of calls is not that of the screen. The call rests on the fitted dose curve; in most records, active means well fitted inhibition curve with a large enough effect; inconclusive means small, poorly fitted or top-dose-only effect; inactive means no such curve, though single readings can be large or run the other way. Where the call is inconclusive, the potency comes from a doubtful curve fit.

test: qHTS for Inhibitors of TGF-b; conditions: HepG2 CAGA-GFP TGF-b/SMAD3 reporter, GFP fluorescence, 18 h, TGF-beta stimulated, 500 pg/mL final; series mostly up to 46.1 µM; activity, negative = inhibition: at the top concentration; further: nearly all actives have a fitted effect of over 65% in size
How it was run: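 GFP signal (ex488/em500-530) from TGF-beta-stimulated HEPG2 CAGA-GFP cells, 500 pg/mL final, 18 h at 37 degrees C in DMEM plus 1% FBS, normalized to unstimulated and DMSO-stimulated controls.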
On the % scale 0 is the no-effect control and ±100 the full control effect; potency means the concentration at half of the fitted maximal effect; tags describe the fitted curve by direction and shape.

Structure (SMILES)	Potency	activity, negative = inhibition
CNc1cc(CSC)nc(SCc2ccc(Cl)c(Cl)c2)n1	inconclusive: 10 µM [inhibitor, partial curve]	–
O=C(OCCOc1cccc(Cl)c1)c1ccc2ncsc2c1	–	inactive: 9.51%
COc1cc2c(cc1OC)C(c1ccc(F)cc1)N(c1ccc(F)cc1)C(=O)C2 (stereo not given)	–	inactive: -1.65%
CCOC(=O)CN1C(=O)N[C@@H](c2ccccc2)C(C(C)=O)=C1C	inconclusive: 1.26 µM [inhibitor, full curve, poor fit]	–
Cc1ccc(OCCCCCN2CCOCC2)c(Cl)c1	–	inactive: 15.1%
Cc1cccc(C)c1NC(=O)CN(C)S(=O)(=O)c1ccc2c(c1)n(C)c(=O)c(=O)n2C	inconclusive: 0.708 µM [inhibitor, partial curve]	–
C[C@@H]1CCCCCCCCC(=O)OCCN(C(=O)OC(C)(C)C)[C@H](C)CCCCCCCCC(=O)OCCN(C(=O)OC(C)(C)C)[C@H](C)CCCCCCCCC(=O)OCCN1C(=O)OC(C)(C)C	inconclusive: 2.82 µM [inhibitor, single point]	–
COc1ccc2cc(-c3[nH]ncc3CN3CCCCO3)ccc2c1	–	inactive: -3.76%
O=C(CSc1nnnn1-c1cccc2c1CCCC2)N1CCCCC1	inconclusive: 22.4 µM [inhibitor, single point]	–
CCc1ccc(OCC(=O)NCC(c2ccc(OC)cc2)N2CCOCC2)cc1 (stereo not given)	inconclusive: 12.6 µM [inhibitor, partial curve, poor fit]	–
FC(F)(F)c1cc(-c2ccccc2)nc(NCc2cccs2)n1	inconclusive: 35.5 µM [inhibitor, single point]	–
CCn1nc(C)c(C(=O)Nc2cc(Oc3cc(C)cc(C)c3)cc([N+](=O)[O-])c2)c1C	active: 14.1 µM	–
COc1ccc(-c2cccc(NS(=O)(=O)c3cc([N+](=O)[O-])c(C)c([N+](=O)[O-])c3)c2)nn1	inconclusive: 25.1 µM [inhibitor, single point]	–
CC(=O)c1cccc(NC(=O)Cn2c(C)c3cnn(-c4ccccc4)c(=O)c3c2C)c1	inconclusive: 35.5 µM [inhibitor, single point]	–
Cc1cccc(C(=O)N(Cc2nc(-c3ccc(Cl)cc3)no2)C(C)C)c1	inconclusive: 22.4 µM [inhibitor, single point]	–
COc1ccc(CCNC(=O)c2cc(S(=O)(=O)N3CCOCC3)cn2C)cc1OC	–	inactive: 2.42%
Cc1ccc(Nc2ccc(NCc3ccccc3)nn2)cc1C	–	inactive: -17.9%
Cc1ccc(Cl)cc1NC(=O)/C(C#N)=C\c1cn(Cc2ccc(F)cc2)c2ccccc12	inconclusive: 11.2 µM [inhibitor, partial curve, poor fit]	–
COc1cc2c(cc1NC(=O)CN1CCN(S(=O)(=O)c3ccccc3F)CC1)oc1ccccc12	–	inactive: 14.9%
C[C@@H]1CCCCO[C@@H](CN(C)Cc2ccc(C(F)(F)F)cc2)[C@@H](C)CN([C@H](C)CO)C(=O)c2cc(N(C)C)ccc2O1	inconclusive: 22.4 µM [inhibitor, single point]	–
CCN(CC)CCN(C(=O)c1c(F)cccc1F)c1nc2cc(C)cc(C)c2s1	inconclusive: 11.2 µM [inhibitor, partial curve, poor fit]	–
CCn1c(-c2csc3c2CCC(C)C3)n[nH]c1=S (stereo not given)	inconclusive: 0.631 µM [inhibitor, full curve, poor fit]	–

Structure (SMILES)	Potency	activity, negative = inhibition
COc1ccc(NC(=O)CNS(=O)(=O)c2cccs2)cc1	inconclusive: 5.62 µM [inhibitor, single point]	–
Cn1c(=O)c([N+](=O)[O-])c(-n2ccnc2)c2ccccc21	inconclusive: 35.5 µM [inhibitor, partial curve, poor fit]	–
c1coc(C2Nc3ccccc3-c3nc4ccccc4n32)c1 (stereo not given)	inconclusive: 3.55 µM [inhibitor, partial curve, poor fit]	–
CCCn1c(Nc2cccc(OC)c2)nc2ccccc21	–	inactive: -7%
Cc1cc(F)ccc1C(O)c1ncc(-c2cccc(OCc3ccccc3)c2)[nH]1 (stereo not given)	inconclusive: 35.5 µM [inhibitor, single point]	–
Cc1ccc(NC(=O)C2CC(=O)N/C(=N/NC(=O)c3ccc(C)cc3)S2)cc1 (stereo not given)	–	inactive: -16%
CCCOc1ccc(C2=CC(=O)C[C@H](c3ccc(OC)cc3)C2)cc1	inconclusive: 5.62 µM [inhibitor, single point]	–
CCOC(=O)CC(NC(=O)c1ccccc1)c1ccc(OC)cc1 (stereo not given)	inconclusive: 7.08 µM [inhibitor, partial curve]	–
Clc1ccc(-c2nnc(CSc3nnc(-c4cccs4)n3Cc3ccccc3)o2)cc1	inconclusive: 17.8 µM [inhibitor, partial curve, poor fit]	–
CCOc1cc2c(cc1OCC)CN(C(=O)c1cccc(S(=O)(=O)N3CCCC3)c1)CC2	inconclusive: 35.5 µM [inhibitor, single point]	–
COc1ccc(/C(O)=C/C(=O)C(=O)NNC(=O)c2ccccc2)cc1	–	inactive: 0.812%
CCCCc1nc2ccccc2n1Cc1nnc2n1-c1ccccc1SC2	inconclusive: 0.112 µM [inhibitor, full curve, poor fit]	–
CC1CC(C)(C)NC(=S)N1CC(=O)NCc1ccccc1Cl (stereo not given)	inconclusive: 25.1 µM [inhibitor, single point]	–
Cc1c(Cl)cccc1N=C1SCCN1C(=O)CN1C(=O)NC2(CCCC2)C1=O	inconclusive: 35.5 µM [inhibitor, single point]	–
Nc1nc(-c2ccccc2)c(CCCNc2ccccc2)c(=O)[nH]1	–	inactive: -2.64%
CCc1ccc(CNC(=O)Cc2c(C(=O)O)c(C)cn2C)cc1	–	inactive: -13.4%
CS(=O)(=O)c1cccc(C(=O)OCC(=O)Nc2ccc3c(c2)OCO3)c1	–	inactive: 13.8%
CC(C)NC(=NCc1ccc(Cl)cc1Cl)Nc1ccccc1	inconclusive: 35.5 µM [inhibitor, single point]	–
Cc1ccc(N(CC(=O)Nc2ccc(Br)c(C)c2)S(=O)(=O)c2cccs2)cc1	–	inactive: -14.7%
CCC(C)(C)c1ccc(OCCCC[n+]2cccc(C)c2C)c(C(C)(C)CC)c1	active: 10 µM	–
CC(=O)c1ccc(NC(=O)CSc2ccc3nc(-c4ccccc4)cn3n2)cc1	inconclusive: 8.91 µM [inhibitor, partial curve]	–
COc1ccc(C2C=C3CNS(=O)(=O)C3CC2OC(=O)c2ccc(Cl)cc2)cc1 (stereo not given)	inconclusive: 17.8 µM [inhibitor, single point]	–

Structure (SMILES)	Potency	activity, negative = inhibition
O=C(NCc1ccc(F)cc1)c1cc2c(s1)-c1ccccc1SC2	inconclusive: 35.5 µM [inhibitor, single point]	–
COc1cccc(/C=N/NC(=O)c2cnccn2)c1O	inconclusive: 4.47 µM [inhibitor, partial curve]	–
CC(=O)c1cccc(NC(=O)COC(=O)CCNS(=O)(=O)c2ccccc2)c1	–	inactive: 6.12%
COc1ccc(NC(=O)c2cc3c(=O)n(Cc4ccco4)ccc3nc2C)c(OC)c1	–	inactive: -25.2%
COc1ccc(C[C@H]2CN3C(=NC[C@H]3Cc3ccccc3)N2CCNC(=O)c2ccc(C)c(Br)c2)cc1	inconclusive: 25.1 µM [inhibitor, single point]	–
COc1ccc(C(O)c2nc(-c3cccc(C(F)(F)F)c3)cs2)cc1 (stereo not given)	inconclusive: 31.6 µM [inhibitor, single point]	–
COc1ccc(C(=O)C2CCCN(C(=O)C3=CCCC3)C2)c(C)c1 (stereo not given)	inconclusive: 12.6 µM [inhibitor, partial curve, poor fit]	–
Cc1cc2c(ncn2C(C)C)c(NS(=O)(=O)c2ccc(F)cc2)c1C	inconclusive: 6.31 µM [inhibitor, single point]	–
Cc1cc(OCc2cccc(S(=O)(=O)N3CCOCC3)c2)ccc1Cl	inconclusive: 22.4 µM [inhibitor, single point]	–
COc1ccc2nc(COC(=O)c3cccs3)c(C(C)=O)[n+]([O-])c2c1	–	inactive: 8.32%
COc1ccc(C(=O)NCC2CCCO2)cc1S(=O)(=O)N1CCCc2ccccc21 (stereo not given)	inconclusive: 6.31 µM [inhibitor, single point]	–
CCOc1ccc(CNC(=O)CCCn2ccc3cc(S(=O)(=O)N4CCCC4)ccc32)cc1	inconclusive: 35.5 µM [inhibitor, single point]	–
COc1ccc(S(=O)(=O)N2CCC(C)CC2)cc1N(C)S(=O)(=O)c1ccccc1	inconclusive: 35.5 µM [inhibitor, single point]	–
COc1cccc(CCNc2ncnc3c2nnn3C)c1	inconclusive: 35.5 µM [inhibitor, single point]	–
O=C(COC(=O)c1cccc(NS(=O)(=O)c2ccc(F)c(F)c2)c1)NC(=O)NC1CCCCC1	inconclusive: 12.6 µM [inhibitor, partial curve, poor fit]	–
Cc1ccccc1CS(=O)(=O)c1nnc([C@H](Cc2ccccc2)NC(=O)OC(C)(C)C)o1	inconclusive: 11.2 µM [inhibitor, partial curve, poor fit]	–
Cc1ccc2c(c1C)-c1c(ccc(C)c1C)C(=O)C2=O	active: 2.51 µM	–
Cc1ccc2c(c1)C(=O)N1[C@H]3c4cc(Cl)ccc4OC[C@@H]3[C@H](c3ccccc3)[C@]1(C)C(=O)N2	inconclusive: 0.891 µM [inhibitor, full curve]	–
O=C(O)c1ccc(N/N=C/C2=C(N3CCOCC3)C(=C\c3ccccc3)/CC2)cc1	inconclusive: 35.5 µM [inhibitor, single point]	–
O=[N+]([O-])c1cc(S(=O)(=O)N2CCCC2)ccc1OCCOc1ccccc1	–	inactive: -12%
Oc1ccc2ccccc2c1CNc1ccc2ccccc2c1	inconclusive: 35.5 µM [inhibitor, single point]	–
